Data on 26 compounds can be found in PubChem BioAssay AID485344 (National Center for Advancing Translational Sciences (NCATS), 2010).

Structures are written as SMILES. “And” between values parts separate entries of the source, which are not always exact repeats. Identical values can stand only once. Screen size: about 340,000 compounds; about 6,900 (2%) were called active. Cut-off read from the data, not from the text of the source: active = inhibition above about 30%; inactive = below that, where a call was filed. Only a part is listed here, and it is no random draw. The source gives no active or inactive call for entries shown without one.

UniProt P14416, sequence (P14416 whole entry, looked up): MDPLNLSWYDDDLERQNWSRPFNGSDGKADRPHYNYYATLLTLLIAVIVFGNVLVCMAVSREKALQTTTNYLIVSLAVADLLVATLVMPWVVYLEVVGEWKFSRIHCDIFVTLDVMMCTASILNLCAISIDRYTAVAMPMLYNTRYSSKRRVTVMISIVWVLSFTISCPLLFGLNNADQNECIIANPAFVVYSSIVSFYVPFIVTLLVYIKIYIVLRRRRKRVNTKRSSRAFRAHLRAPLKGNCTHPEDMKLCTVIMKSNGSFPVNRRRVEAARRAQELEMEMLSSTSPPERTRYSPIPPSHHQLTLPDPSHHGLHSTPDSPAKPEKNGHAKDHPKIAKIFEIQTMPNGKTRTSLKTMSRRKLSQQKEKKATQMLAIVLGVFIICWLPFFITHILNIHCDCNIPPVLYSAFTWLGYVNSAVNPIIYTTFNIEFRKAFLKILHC

In this assay the target is D(2) dopamine receptor (Homo sapiens) (UniProt P14416). Put plainly: HTS Assay for Allosteric Antagonists of the Human D2 Dopamine Receptor: Primary Screen for Antagonists. Note: 0% is about no effect. As to conditions: HEK293 TREx D2 cells, calcium flux, dopamine EC80; at 10 µM; stronger effect = higher value. In short, it runs like this:
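Calcium flux kinetic readout in an inducible HEK293 TREx D2 line plated overnight at 30 C. After 180 s compound exposure, an EC80 dopamine challenge follows with another 180 s kinetic read to detect antagonism.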
Background: A change in cytosolic calcium serves as a functional read-out for many receptors and channels.
As usually defined, the inhibition is the drop in the measured response relative to a control, in per cent. Take `Cc1ccc(N2CCN(Cc3nnc(-c4ccccc4F)o3)CC2)c(C)c1`: the inhibition is 7.44%.

With `CSc1ccc(/C=C/c2nc3ccccc3n2S(=O)(=O)c2ccc(Br)cc2)cc1`, the inhibition was -7.95%.

Consider `COc1ccc(/C=C/C(=O)Nc2cccc(F)c2)cc1S(=O)(=O)N1CCOCC1`, for which the inhibition is active: 55.6%.

In the case of `CCOC(=O)c1cccc(NS(=O)(=O)c2ccc(-c3coc(C)n3)cc2)c1`, the inhibition is -7.73%.

`Cc1cc(C)c(NC(=O)C2CCN(C(=O)N3CCOc4ccccc43)CC2)c(C)c1`: the inhibition was 26.4%.

As for `COc1cc2c(cc1NC(=O)COc1ccc(Br)cc1)oc1ccccc12`, the inhibition was found to be 17.4%.

In the case of `COc1ccc(-c2cc(C(F)(F)F)n3ncc(-c4ccccc4)c3n2)cc1`, the inhibition was found to be 0.861%.

On to `COC(=O)c1ccc2c(=O)n(CCc3ccc(S(N)(=O)=O)cc3)c(SCC(=O)C(C)(C)C)nc2c1`, for which the inhibition is -24.9%.

Take `CCc1cccc(N2C(=O)CS(=O)(=O)C23C(=O)N(Cc2ccccc2)c2ccc(C)cc23)c1` (stereo unspecified): the inhibition was -3.17%.

Regarding `Cc1ccc(Nc2nc3ccccc3nc2-n2nc(C)cc2C)c(Cl)c1`, the inhibition amounted to 15.1%.

Regarding `CN(C(=O)c1ccncc1)c1nnc(-c2ccccn2)s1`, the inhibition was active: 34.7%.

Turning to `Cc1cccc(C(=O)N2c3ncnn3C3(CCCCC3)[C@@H]3CCCC[C@@H]32)c1`, the inhibition was -2.77%.

Turning to `CSc1ccc(CNC(=O)c2sc3ncnc(N(C)C4CCCCC4)c3c2C)cc1`, the inhibition is -21.2%.

As for `Cc1cccc(Nc2cc(C)nc(-n3nc(C)cc3C)n2)c1`, the inhibition is -15.2%.

Consider `CCOc1ccc(CN2C(=O)C(=O)c3cccc(C)c32)cc1OC`, for which the inhibition worked out at 1.89%.

Turning to `Cc1c(C(=O)Nc2ccc(F)cc2)oc2ccc(S(=O)(=O)N3CCCCCC3)cc12`, the inhibition is -1.7%.

On to `CCCCOc1ccccc1Cn1c(=O)sc2ccccc21`, for which the inhibition is -8.51%.

Take `Cc1cccc(NC(=O)CN(C)S(=O)(=O)c2ccc3c(c2)CCC(=O)N3)c1C`: the inhibition is -8.4%.

Consider `CCOc1ccc(C(=O)Nc2cccc(NC(=O)c3ccc(Cl)cc3Cl)c2)cc1`, for which the inhibition was -1.19%.

As to `COc1ccccc1CNc1nc2ccccc2c2nc(-c3cccc(C)c3)nn12`, the inhibition was found to be 1.39%.

For `Clc1ccc2c(c1)CCc1cccnc1C2=C1CCNCC1`, the inhibition is active: 53.6% and active: 30.2%.

As to `Cc1cccc(CCNC(=O)c2cc3c(=O)[nH]c4ccc(C)cc4c3s2)c1`, the inhibition was determined as 10.4%.

`CCn1cc(C(=O)NCCN(CC(C)C)CC(C)C)c(=O)c2cc(S(=O)(=O)N(C)C3CCCCC3)ccc21`: the inhibition is -4.55%.

As to `COc1cc([N+](=O)[O-])ccc1NC(=O)N1CCC2(CC1)Nc1ccccc1-n1cccc12`, the inhibition was 6.86%.

`COc1ccc2cc3cc(C(=O)N4CCN(c5cccc(C(F)(F)F)c5)CC4)sc3nc2c1`: the inhibition was -9.11%.

On to `COc1ccc(-c2nc3sc(CCNC(=O)C(=O)Nc4cc(F)ccc4F)c(C)n3n2)cc1`, for which the inhibition was found to be 27.6%.
